According to PubChem BioAssay AID720569 (National Center for Advancing Translational Sciences (NCATS), 2013):
The inconclusive results got no clear call from the source; some entries with a clear call stand among them for comparison. Potencies of inconclusive entries are doubtful fits and often do not repeat. The source made the active and inactive calls. The call rests on the fitted dose curve; in most records, active means well fitted inhibition curve with a large enough effect; inconclusive means small, poorly fitted or top-dose-only effect; inactive means no such curve, though single readings can be large or run the other way.

system: pyruvate kinase (Trypanosoma brucei); assay: qHTS of Trypanosoma Brucei Inhibitors: Confirmatory Assay for Cherry-picked Compounds; settings: recombinant TbPYK, Kinase-Glo ATP luminescence; series mostly up to 76.9 µM; further: nearly all actives have a fitted effect of over 70% in size
Method in brief: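 Luminescence from Kinase-Glo Plus reports ATP generated by T. brucei pyruvate kinase after 45 min at room temperature with 130 uM ADP. Compounds were tested at several concentrations and curves fitted to normalized data.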
Potency means the concentration at half of the fitted maximal effect; tags describe the fitted curve by direction and shape.

Potency, inactive:
Cc1ccc(S(=O)(=O)/N=C2/C=C(C3C(=O)CC(C)(C)CC3=O)C(=O)c3ccccc32)cc1
COCCN(Cc1cc2cccc(C)c2n2nnnc12)C(=O)C(F)(F)F

Potency, inconclusive:
COc1cc(C2CC(=O)N3CN(Cc4ccco4)CSC3=C2C#N)ccc1OCc1ccccc1 (stereo unspecified) 0.158 µM [inhibitor, full curve]
Cc1ccc(Cc2c(-c3ccco3)nc3ccc(Cl)cn23)cc1 28.2 µM [inhibitor, single point]
CCn1c(C)cc(C(=O)COC(=O)c2ccccc2[N+](=O)[O-])c1C 25.1 µM [inhibitor, partial curve]
CC[n+]1c(/C=C2/C=C(C)CC(C)C2)sc2ccccc21 (stereo unspecified) 39.8 µM [inhibitor, single point]
CN(C)c1ccc(/C=C/c2ccc3ccccc3[n+]2C)cc1 28.2 µM [inhibitor, partial curve]
CC1COCC(C)N1C1=C(Cl)C(=O)c2ccccc2C1=O (stereo unspecified) 15.8 µM [inhibitor, single point]
COc1ccc(OC)c(NC2c3ccccc3C(=O)N2Cc2ccc3c(c2)OCO3)c1 (stereo unspecified) 25.1 µM [inhibitor, partial curve, poor fit]
Cc1nonc1C(=O)N/N=C/c1ccc(O)c(O)c1 31.6 µM [inhibitor, partial curve, poor fit]

Potency, active:
COCC(C)n1c(COc2ccccc2F)nnc1SCC(=O)Nc1oc(C)c2c(C)n[nH]c(=O)c12 (stereo unspecified) 20 µM
